In all, about 110,000 compounds were measured (“z-score”: median about -0.1, highest 2% from about 2 on). The list shows a part of the results.

The target in the test is Metabotropic glutamate receptor 8 (Rattus norvegicus) (UniProt P70579). Put plainly: rat mGluR8 modulators via GIRK flux, primary screen, cell-based, thallium flux, HTS (AID 488969). The conditions noted are these: HEK293 rat mGluR8, GIRK (G protein-gated inwardly rectifying potassium channel) thallium flux, FluoZin2; at 10 µM; stronger effect = higher value; submaximal glutamate (EC20) added with thallium.
Sequence of UniProt P70579 (P70579 whole entry, looked up): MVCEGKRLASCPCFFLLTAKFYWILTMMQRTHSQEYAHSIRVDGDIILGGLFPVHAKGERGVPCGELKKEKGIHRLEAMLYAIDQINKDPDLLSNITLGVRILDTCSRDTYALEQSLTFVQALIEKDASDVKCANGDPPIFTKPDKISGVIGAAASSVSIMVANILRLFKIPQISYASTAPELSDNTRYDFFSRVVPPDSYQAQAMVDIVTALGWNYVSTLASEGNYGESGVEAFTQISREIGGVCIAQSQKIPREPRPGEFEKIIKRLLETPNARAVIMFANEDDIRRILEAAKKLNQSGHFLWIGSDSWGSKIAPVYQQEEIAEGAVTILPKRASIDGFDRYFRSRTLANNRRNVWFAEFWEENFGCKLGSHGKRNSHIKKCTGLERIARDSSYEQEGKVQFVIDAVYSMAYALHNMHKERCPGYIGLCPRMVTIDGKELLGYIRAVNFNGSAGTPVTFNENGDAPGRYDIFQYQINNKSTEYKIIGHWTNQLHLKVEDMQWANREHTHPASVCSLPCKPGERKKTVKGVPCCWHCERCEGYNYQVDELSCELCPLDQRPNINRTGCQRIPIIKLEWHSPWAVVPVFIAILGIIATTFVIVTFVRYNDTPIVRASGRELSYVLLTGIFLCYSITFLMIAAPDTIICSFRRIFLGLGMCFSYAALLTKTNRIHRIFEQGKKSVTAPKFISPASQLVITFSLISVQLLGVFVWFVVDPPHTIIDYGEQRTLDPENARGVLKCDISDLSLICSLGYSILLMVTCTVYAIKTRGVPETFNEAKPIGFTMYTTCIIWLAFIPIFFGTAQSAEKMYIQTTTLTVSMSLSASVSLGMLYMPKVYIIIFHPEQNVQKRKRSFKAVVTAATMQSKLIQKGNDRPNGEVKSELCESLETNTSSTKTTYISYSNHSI
In turn, `CC(=O)c1cccc(NC2c3ncccc3C(=O)N2Cc2ccco2)c1` (configuration not stated) came in with a z-score of 0.0428.

Regarding `Cc1ccc(NC(=O)c2cc(C)nn2-c2ccccc2)cc1`, the z-score was -0.22.

Turning to `COc1ccc(CNC(=O)c2cccc(N3CCCC3=O)c2)cc1`, the z-score is -0.0471.

As for `COCc1cc(Sc2cccc(Cl)c2Cl)nc(-c2ccccc2)n1`, the z-score is -0.293.

Molecule `CSc1nc2nc(-c3ccccc3)cc(=O)n2[nH]1` gave a z-score of -0.443.

As to `CC1CC(C)CN(C(=O)C(NS(=O)(=O)c2ccc3c(c2)oc(=O)n3C)C(C)C)C1` (configuration not stated), the z-score was 0.0168.

On to `FC(F)(F)c1cc(-c2cccs2)nc(N2CCOCC2)n1`, for which the z-score stood at 0.297.

For the molecule `Cc1ccc(N(C(C)C(=O)O)S(=O)(=O)c2c(C)n[nH]c2C)cc1` (configuration not stated), the z-score worked out at 0.525.

As for `O=C(Cn1nnc(-c2ccccc2)n1)N1CCN(S(=O)(=O)c2ccc(Cl)cc2)CC1`, the z-score is -1.25.

For the molecule `CCOc1cccc(/C(O)=C2/C(=O)C(=O)N(Cc3cccnc3)C2c2ccco2)c1` (configuration not stated), the z-score is -0.0208.

`C/C(=C(\C#N)C(=O)NCCCN1CCOCC1)N(C)C` displayed a z-score of 0.592.

On to `Cc1cccc(NC(=O)Cn2c(=O)n3nc(CCn4nc(C)cc4C)nc3c3ccccc32)c1`, for which the z-score was -0.0936.

For `CCN(C(=O)COC(=O)c1c(NC(C)=O)sc(C)c1C)C1CCS(=O)(=O)C1` (configuration not stated), the z-score was -1.8.

`COc1ccc(CNC(=O)CSCc2cccc(Cl)c2)cc1` came in with a z-score of -0.235.

In turn, `COc1ccc(NC(=O)/C(=C/c2ccc3c(c2)OCO3)NC(C)=O)cc1` yielded a z-score of -0.031.

In turn, `O=C1C2CCCN2C(c2ccccc2F)N1c1ccc(Cl)cc1` (configuration not stated) came in with a z-score of -0.173.

With `O=C(Nc1cccnc1Cl)c1ccc(S(=O)(=O)N2CCCCCC2)cc1`, the z-score is -0.00431.

As for `Cc1ccc(NC(=O)CCn2c(=O)oc3ccccc32)cc1`, the z-score came to 0.149.

The molecule `Cc1c(C(=O)N2CCN(c3ccccn3)CC2)sc2ncnc(N3CCOCC3)c12` gave a z-score of 0.116.

For `O=C(N/N=C\c1cn(-c2ccccc2)nc1-c1ccccc1)c1ccc2c(c1)OCO2`, the z-score was determined as 0.000201.

The molecule `CC(C)Cc1nc(N2CCC(C(N)=O)CC2)c2nnn(Cc3ccccc3)c2n1` had a z-score of 0.128.

Take `CCOC(=O)N1CCC(n2c(SCC(=O)NCc3ccco3)nc3ccsc3c2=O)CC1`: the z-score is -0.557.

As to `Cc1ccc(C(C)n2cc(C(=O)NCCN3CCN(C)CC3)nn2)cc1` (configuration not stated), the z-score was -0.0667.

Regarding `CCOc1cc(C(=O)Nc2cc(C)ccc2OC)ccc1OCC(=O)N1CCCCC1`, the z-score was -0.313.

Take `Cc1ccc(Nc2nnc(SCC(=O)NCCN3C(=O)CSC3=O)s2)cc1`: the z-score was found to be 0.881.

For the molecule `COC(CNC(=O)C1CC(=O)N(CCc2ccccc2)C1)OC` (configuration not stated), the z-score came out at 0.00594.

The molecule `CCCC(=O)Nc1nnc(-c2cccc(OCC)c2)s1` yielded a z-score of 0.633.

Take `CC(Cc1ccccc1)N/C=C1\CC(=O)NC1=O` (configuration not stated): the z-score is 0.465.

In the case of `CCCCOc1ccc(/C=C/C(=O)NCCc2nc3ccccc3[nH]2)cc1`, the z-score is -0.161.

Molecule `N#C/C(=C\c1ccc(Oc2ccc(C(F)(F)F)cc2[N+](=O)[O-])cc1)c1nc2ccccc2[nH]1` displayed a z-score of 0.0845.

Molecule `Cc1cc(OCC(=O)N(C)C)c2c(-c3ccccc3)cc(=O)oc2c1` registered a z-score of -0.759.

As to `Nc1ncnc(Nc2ccccc2C(F)(F)F)n1`, the z-score was -0.11.

`CC(=O)N(CC1CCCO1)c1nnc(-c2cnccn2)s1` (configuration not stated) showed a z-score of -0.354.

As for `CCn1c(SCC(=O)c2ccc(Cl)cc2)nnc1-c1ccoc1C`, the z-score is -0.648.

`COc1cc(NC(=O)c2cc(C(C)C)on2)cc(OC)c1OC`: the z-score was -0.744.

`O=C1c2cccnc2Oc2ccc(Cl)cc2N1Cc1ccc(F)cc1` came in with a z-score of -0.261.

In turn, `CCCNC(=O)C1CNc2ccccc2O1` (configuration not stated) gave a z-score of -0.2.

For `Cc1ccc(N(C(=O)Cn2nnc(-c3cccs3)n2)C(C(=O)NC2CCCC2)c2ccncc2)cc1` (configuration not stated), the z-score was -0.291.

As for `COCCN(C(=O)c1ccco1)C(C(=O)NC1CCCC1)c1cccs1` (configuration not stated), the z-score turned out to be 0.0705.

`COc1ccc(C(=O)/C=C/c2ccccc2C(F)(F)F)cc1` came in with a z-score of -0.168.

The molecule `CCOC(=O)C(=O)C1=C(N2CCOCC2)/C(=C\c2ccc(F)cc2)CC1` came in with a z-score of 0.475.

Molecule `CCc1ccc(OCC(=O)N/N=C/c2ccc(OS(=O)(=O)c3ccc(C)cc3)c(OC)c2)cc1` gave a z-score of -0.212.

For `COc1cc(OC)cc(C(=O)Nc2ccc(-c3nc4ccccc4o3)c(O)c2)c1`, the z-score came out at 0.108.

`CCCCNS(=O)(=O)c1ccc2c(c1)oc(=O)n2CC(=O)OCC` showed a z-score of 0.0209.

`Cc1ccc(C(=O)OC/C(O)=C(\C#N)c2nc3ccccc3[nH]2)cc1S(=O)(=O)N1CCOCC1` gave a z-score of -0.0249.

Molecule `COc1ccc(C2C(C(=O)Nc3cccc(C)n3)c3ccccc3C(=O)N2C)cc1` (configuration not stated) returned a z-score of -0.223.

As to `COC(=O)C1(C)NC(c2ccco2)C2C(=O)N(c3ccc(C)cc3)C(=O)C21` (configuration not stated), the z-score came to 0.163.

Molecule `CS(=O)(=O)N(CC(=O)Nc1ccc2c(c1)OCCO2)Cc1ccc(Cl)cc1` showed a z-score of 0.312.

`O=C(c1ccccc1)N1CCN(C(=O)c2ccc([N+](=O)[O-])cc2)CC1`: the z-score is -0.0358.

Molecule `COc1ccccc1C(=O)Nc1nc(N)n(-c2ccccc2)n1` returned a z-score of -0.666.

The molecule `COc1ccccc1Oc1ccc(S(=O)(=O)NCc2ccccn2)cc1` had a z-score of 0.0652.

`O=C(NCc1ccccn1)C1CCN(Cc2cnn(-c3ccccc3)c2-n2cccc2)CC1` came in with a z-score of -0.0285.

`O=C(Nc1c(Cl)ccc2nsnc12)c1cccnc1` came in with a z-score of -0.111.

For the molecule `CC(=O)c1oc2ccccc2c1NC(=O)CCCN1C(=O)c2ccccc2C1=O`, the z-score was determined as 0.31.

In the case of `CC1CCC(N2CCN(c3ncccn3)CC2)CC1` (configuration not stated), the z-score was -0.212.

The molecule `O=C(CSc1nccn1-c1ccccc1)c1ccc(Cl)cc1` returned a z-score of -0.149.

With `COc1ccc(Br)cc1C(=O)Nc1nnn(C)n1`, the z-score was 0.411.

The molecule `CCc1cc2cc(C)c(C)cc2nc1SCC(=O)NNC(=O)c1ccco1` came in with a z-score of 0.26.

`Cc1ccc(C(=O)OCC(=O)c2c(N)n(C)c(=O)n(C)c2=O)cc1S(=O)(=O)N1CCCCC1` gave a z-score of -0.447.

`O=C1c2ccccc2S(=O)(=O)c2cc(C(=O)N(c3ccccn3)c3ccccn3)ccc21` yielded a z-score of -0.991.

As for `Cc1ccc(S(=O)(=O)NCCC(=O)Nc2ccc(Cl)c(Cl)c2)cc1C`, the z-score was -0.0519.

For `CC1C(=O)Nc2ccccc2N1C(=O)C1CC1` (configuration not stated), the z-score is -0.0821.

`CSc1nc(C)c2c(c1C#N)CCCC2` displayed a z-score of 0.402.

For `C=CCN(C(=O)CNC(=O)c1ccco1)C(C(=O)NC1CCCCC1)c1ccccc1F` (configuration not stated), the z-score is -0.119.

On to `COc1ccc([C@H]2[C@H](C(=O)C(C)(C)C)N3N=Cc4ccccc4C3C23C(=O)OC(C)(C)OC3=O)cc1` (some centres not stated), for which the z-score worked out at 0.18.

On to `COc1ccc2c(C(=O)CN3CCN(c4ccccc4)CC3)c[nH]c2c1`, for which the z-score was found to be 0.0118.

As for `CCOC(=O)c1ccc(N2C(=O)CC(N3CCC(O)(c4ccc(Cl)cc4)CC3)C2=O)cc1` (configuration not stated), the z-score came out at 0.433.

The values are drawn from PubChem BioAssay AID488969 (Vanderbilt High Throughput Screening Facility, 2010).
